In patent US20220411472A1 (FRED HUTCHINSON CANCER CENTER, published 2022):

Legend:
[1] = target: T1, SH2-SpyTag (Nck2 SH2 domain with N-terminal spytag) (human); test: SDS-PAGE of the covalent capture of spy-SH2 by the Spycatcher domains of the 12-repeat subunit; lanes 0, 2, 15 min
T1 construct: also called spy-SH2; spytagged SH2 domain
T1 chain: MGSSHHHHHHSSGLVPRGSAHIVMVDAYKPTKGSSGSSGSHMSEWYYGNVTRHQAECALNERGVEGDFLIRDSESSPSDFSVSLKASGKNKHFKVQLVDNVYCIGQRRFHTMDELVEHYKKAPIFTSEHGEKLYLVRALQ

[2] = target: T2, Clover-SpyTag (Clover fluorescent protein with N-terminal spytag); test: reducing SDS-PAGE of the covalent capture of Clover-SpyTag by the Spycatcher domains of the 12-repeat subunit; lanes [Clover (µM)] 0, 10, 40
T2 construct: also called spytagged GFP derivative ('Clover'); tagged Clover

B1: cTRP24_Sub12_Spy (cTRP construct containing 12 repeats and inserted fusions of spycatcher domains; homodimer showing four Spycatcher domains, unloaded) (designed binder)
chain: MASSHHHHHHSSGLVPRGSSMGLDCEAIKAAAELGKAGISSEEILELLRAAHELGLDPEAIKAAAELGKAGISSEEILELLRAAHELGLDPEAIKAAAELGKAGISSEEILELLRAAHELGGSDGQDKGSDGQDKGGDS[about 80 residues omitted here]GGSDGQDKGSDGQDKGGLDPEAIKAAAELGKAGISSEEILELLRAAHELGLDPEAIKAAAELGKAGISSEEILELLRAAHELGLDPEAIKAAAELGKAGISSEEILELLRAAHELGLDPEAIKAAAELGKAGISSEEILELLRAAHELGLDPEAIKAAAELGKAGISSEEILELLRAAHELGLDPEAIKAAAELGKAGISSEEILELLRAAHELGGSDGQDKGSDGQDKGGDS[about 80 residues omitted here]GGSDGQDKGSDGQDKGGLDPEAIKAAAELGKAGISSEEILELLRAAHELGLDPEAIKAAAELGKAGISSEEILELLRAAHELGLDPECIKAAAELGKAGISSEEILELLRAAHELG
notes: also called cTRP2412SS-Spy; cTRP-Spy
B1: binds [1]; binds [2].
